From PubChem BioAssay AID504332 (National Center for Advancing Translational Sciences (NCATS), 2011)
The whole screen tested about 350,000 compounds, of which about 31,000 (8.9%) were called active. The inconclusive results got no clear call from the source; some entries with a clear call stand among them for comparison. Calls follow the shape of the dose curve; as a rule, active = well fitted inhibition curve with a large enough effect; inconclusive = small, poorly fitted or top-dose-only effect; inactive = no such curve, though single readings can be large or run the other way. Potencies beside an inconclusive call are fits to weak or partial responses and may not hold up. The source holds several records for some structures; these can differ, active in one and inactive in another.

Target: Histone-lysine N-methyltransferase EHMT2 (Homo sapiens) (UniProt Q96KQ7)
Assay: qHTS Assay for Inhibitors of Histone Lysine Methyltransferase G9a; also: nearly all actives have a fitted effect of over 75% in size
Details: G9a H3K9 monomethylation, AlphaScreen, 2 h; activity, negative = inhibition: at 59 µM (top of the series) unless noted
Method in brief: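 Enzyme 20 nM + cpd, 15 min RT; add b-H3K9 pep 500 nM / SAM 20 uM; 2 h RT; anti-H3K9me1 Ab 0.5 ug/mL + SA donor / anti-rabbit acceptor beads 20 ug/mL each, 10 min; AlphaScreen read.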
% is scaled to controls: 0 for no effect and ±100 for the full control effect; potency is read from the fitted curve at half-maximal effect; tags tell the direction and shape of the fitted curve.

Sequence of UniProt Q96KQ7 (Q96KQ7 whole entry, looked up): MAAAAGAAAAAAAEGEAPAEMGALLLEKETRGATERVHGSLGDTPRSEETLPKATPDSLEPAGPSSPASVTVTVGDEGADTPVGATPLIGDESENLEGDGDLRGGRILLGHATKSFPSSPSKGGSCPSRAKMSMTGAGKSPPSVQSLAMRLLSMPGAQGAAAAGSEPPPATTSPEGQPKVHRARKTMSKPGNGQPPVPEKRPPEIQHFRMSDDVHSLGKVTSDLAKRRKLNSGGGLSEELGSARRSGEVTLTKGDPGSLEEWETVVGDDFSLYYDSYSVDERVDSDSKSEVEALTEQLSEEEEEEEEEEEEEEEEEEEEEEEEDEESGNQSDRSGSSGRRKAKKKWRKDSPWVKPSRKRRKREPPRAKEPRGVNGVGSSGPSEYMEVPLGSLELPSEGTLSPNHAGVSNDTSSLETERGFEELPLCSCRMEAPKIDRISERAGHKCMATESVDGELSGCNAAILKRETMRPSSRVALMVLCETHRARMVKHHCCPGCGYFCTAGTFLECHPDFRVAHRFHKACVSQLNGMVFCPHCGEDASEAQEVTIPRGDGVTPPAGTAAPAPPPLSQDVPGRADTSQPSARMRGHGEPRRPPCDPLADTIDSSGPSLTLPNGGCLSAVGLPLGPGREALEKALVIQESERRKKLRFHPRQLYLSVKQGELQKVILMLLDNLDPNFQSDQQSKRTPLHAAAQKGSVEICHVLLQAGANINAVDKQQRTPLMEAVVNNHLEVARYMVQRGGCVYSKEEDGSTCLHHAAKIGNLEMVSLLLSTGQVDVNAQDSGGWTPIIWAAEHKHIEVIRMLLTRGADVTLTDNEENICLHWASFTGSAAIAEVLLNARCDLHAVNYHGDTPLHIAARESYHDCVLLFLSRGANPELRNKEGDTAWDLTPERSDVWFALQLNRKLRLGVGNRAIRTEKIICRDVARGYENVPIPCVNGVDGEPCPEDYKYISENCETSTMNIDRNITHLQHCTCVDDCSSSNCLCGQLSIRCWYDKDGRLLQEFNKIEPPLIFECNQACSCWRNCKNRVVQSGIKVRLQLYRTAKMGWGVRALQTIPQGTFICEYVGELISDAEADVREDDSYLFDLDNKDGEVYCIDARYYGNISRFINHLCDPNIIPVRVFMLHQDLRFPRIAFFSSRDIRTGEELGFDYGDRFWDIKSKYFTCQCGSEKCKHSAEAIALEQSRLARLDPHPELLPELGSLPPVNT

| SMILES | Potency | activity, negative = inhibition |
| --- | --- | --- |
| COC(=O)NCC(c1ccco1)N1CCN(c2ccc(OC)cc2)CC1 (stereo not drawn) | inconclusive: 14.1 µM [inhibitor, partial curve, poor fit] |  |
| COc1ccccc1C(=O)NC(=O)Nc1ccc(-n2nc(C(F)(F)F)cc2C(F)(F)F)cc1 | inactive |  |
| CC1=NN=C(c2ccccc2)C(c2c[nH]c3ccccc23)N1O (stereo not drawn) | inconclusive: 100 µM [inhibitor, single point] |  |
| CCC(C)NC(=O)c1cc(OC)c(OC)c(OC)c1 (stereo not drawn) | inconclusive: 35.5 µM [inhibitor, single point] |  |
| COc1ccc(C2(O)CC3CCC(C2)N3c2cc(C)nc(-c3ccccc3)n2)cc1 (stereo not drawn) | inconclusive: 100 µM [inhibitor, partial curve, poor fit] |  |
| Cc1cccc(N2CCN(C(=O)Cn3c(=O)c4cccn4c4ccc(F)cc43)CC2)c1C | inactive |  |
| Cc1ccc(N(C(=O)Cn2nnc3ccccc32)C(C(=O)NCc2ccco2)c2ccc(C)o2)cc1 (stereo not drawn) | inconclusive: 89.1 µM [inhibitor, single point] |  |
| Cn1c(-n2c(-c3ccco3)nc3ccccc3c2=O)nc2ccccc21 | inconclusive: 100 µM [inhibitor, single point] |  |
| CCOC(=O)CCn1nc(C)c2c(C)n(-c3ccccc3)nc2c1=O | inactive |  |
| Cc1nc2ccc(S(=O)(=O)NCC(=O)N3CCCC(C)C3)cc2s1 (stereo not drawn) |  | inconclusive: -73.7% [inhibitor] [at 102 µM] |
| COc1cc2c(cc1OC)N1C(=O)CC(OCC(=O)O)C3C4CC5(CCN5C(=O)C4=O)C2C31 (stereo not drawn) | inconclusive: 17.8 µM [inhibitor, full curve] |  |
| CCOC(=O)c1sc(NC(=O)c2cc3nc(-c4ccc(Br)cc4)cc(C(F)(F)F)n3n2)c(C(=O)OCC)c1C | inactive |  |
| C#CCOCCOCCOCCNc1nc(N2CCN(C(=O)C([C@@H](C)CC)n3cc(C(N)CO)nn3)CC2)nc(N2CCN(C(=O)[C@H](CCC(=O)O)n3cc(C(N)[C@H](C)CC)nn3)CC2)n1 (stereo partly drawn) |  | inconclusive: -73% [inhibitor] [at 12.7 µM] |
| CCCN(CCC(=O)Nc1cc(OC)cc(OC)c1)CC1CC1 | active: 44.7 µM |  |
| CCCN(CC(=O)Nc1ccccc1C)C(=O)Cc1cccs1 | inconclusive: 8.91 µM [inhibitor, single point] |  |
| CCOc1cc(NC(=O)C2CC2)c(OCC)cc1NC(=O)c1ccccn1 | inconclusive: 7.08 µM [inhibitor, single point] |  |
| O=C(O)[C@H]1NCCC[C@H]1C(=O)O | active: 6.7 µM |  |
| CCOc1ccc(CCNC(=O)C2CCCN(S(=O)(=O)c3c(C)n[nH]c3C)C2)cc1OCC (stereo not drawn) | inconclusive: 89.1 µM [inhibitor, single point] |  |
| COc1ccc(CNCc2ccc([N+](=O)[O-])cc2)cc1OC | active: 12.6 µM |  |
| COc1cc(CC(=O)Nc2cccc(C(F)(F)F)c2)cc(OC)c1OC | inactive |  |
| Cc1ccc(NC(=O)N(C2CCCCC2)C(C)c2cccnc2)cc1C (stereo not drawn) | inconclusive: 89.1 µM [inhibitor, single point] |  |
| O=C(COC(=O)c1cc(S(=O)(=O)N2CCCC2)ccc1O)NCCc1ccccc1 | inconclusive: 10 µM [inhibitor, partial curve, poor fit] |  |
| Cc1ccc(NC(=O)CCc2c(C)nc3nc(C)nn3c2C)c(Cl)c1 | inactive |  |

| SMILES | Potency | activity, negative = inhibition |
| --- | --- | --- |
| COc1cc(OC)c(C2N(c3ccc(Cl)c(Cl)c3)C(=O)C3CCCN32)cc1OC (stereo not drawn) | inconclusive: 56.2 µM [inhibitor, partial curve, poor fit] |  |
| Cc1ccc(C)c(NC(=S)c2ccc3ccccc3n2)c1 | inconclusive: 17.8 µM [inhibitor, single point] |  |
| NC(=O)CSc1nc2c(sc(=S)n2-c2ccccc2)c(=O)[nH]1 | inconclusive: 89.1 µM [inhibitor, partial curve, poor fit] |  |
| Cc1cc(C)n2c(Br)c(CSc3nc4ccccc4s3)nc2n1 | inconclusive: 39.8 µM [inhibitor, single point] |  |
| CCOC(=O)C1CCCN(C(=O)c2cc(Cl)ccc2Cl)C1 (stereo not drawn) | active: 44.7 µM |  |
| CCOC(=O)CCP(=O)(O)C(O)c1ccc(OC)cc1 (stereo not drawn) | inconclusive: 89.1 µM [inhibitor, single point] |  |
| CN(C)c1ccc(/C=C(\NC(=O)c2ccccc2)C(=O)NCc2cccnc2)cc1 | active: 39.8 µM |  |
| CCCn1c(=O)c(C(=O)Nc2ccccc2C)c(O)c2ccccc21 |  | inconclusive: -72% [inhibitor] [at 0.501 µM] |
| CCC(SC1=Nc2ccccc2C2=NC(CC(C)C)C(=O)N12)C(=O)Nc1ccc2c(c1)OCO2 (stereo not drawn) | inconclusive: 15.8 µM [inhibitor, single point] |  |
| Cc1cccc(C(=O)NCCC(=O)Nc2ccc(C#N)cc2)c1 | inactive |  |
| CCOc1ccccc1/C=N/Nc1ccccc1[N+](=O)[O-] | inconclusive: 4.47 µM [inhibitor, full curve] |  |
| O=c1[nH]c(/C=C/c2ccc3c(c2)OCO3)c([N+](=O)[O-])c(=O)[nH]1 | inconclusive: 39.8 µM [inhibitor, partial curve, poor fit] |  |
| O=C(NCc1ccccc1)C(=O)NCC(c1cccnc1)N1CCN(c2ccccc2)CC1 (stereo not drawn) | inactive |  |
| Cc1ccc(N2C(=O)c3ccccc3C2Nc2ccccc2F)nc1 (stereo not drawn) | active: 50.1 µM |  |
| O=C1N=C(N2CCCC2)CN1c1ccccc1 | inconclusive: 100 µM [inhibitor, single point] |  |
| CCOC(=O)c1c(NC(=O)C(C)Sc2c[nH]c3ccccc23)sc2c1CCC2 (stereo not drawn) | inconclusive: 70.8 µM [inhibitor, partial curve, poor fit] |  |
| COc1ccc(S(=O)(=O)NC(C)C(=O)Nc2ccccc2C(F)(F)F)cc1 (stereo not drawn) | active: 11.2 µM |  |
| O=[N+]([O-])c1ccc(C=Nc2cccc3ccccc23)s1 | active: 10 µM |  |
| CCOC(=O)C1(CCc2ccccc2)CCN(C(=O)CCc2cnccn2)CC1 | inconclusive: 0.251 µM [inhibitor, partial curve, poor fit] |  |
| Brc1ccccc1-c1nnc2sc(Cc3ccccc3)nn12 | inconclusive: 44.7 µM [inhibitor, partial curve, poor fit] |  |
| CC(C)[C@H](NC(=O)OC(C)(C)C)c1nnc(S(=O)(=O)Cc2c(F)cccc2Cl)o1 | inconclusive: 3.16 µM [inhibitor, partial curve, poor fit] |  |
| Cc1nc(-c2ccc(F)cc2)c(CC(=O)Nc2cc(S(=O)(=O)N3CCCCC3)ccc2C)s1 | inconclusive: 50.1 µM [inhibitor, partial curve] |  |
| Cc1sc(N)nc1C12CC3CC(CC(C3)C1)C2 | active: 44.7 µM |  |

| SMILES | Potency | activity, negative = inhibition |
| --- | --- | --- |
| CC(=O)OCCNc1cc(Sc2nc3ccccc3[nH]2)c2nonc2c1[N+](=O)[O-] | active: 3.98 µM |  |
| CN(C)CCCNc1ccc(S(N)(=O)=O)cc1[N+](=O)[O-] | inactive |  |
| COc1ccc(C(=O)N/C(=C\c2ccc3c(c2)OCO3)C(=O)N2CCOCC2)cc1 | inconclusive: 7.94 µM [inhibitor, partial curve, poor fit] |  |
| COc1cc(/C=C(/C#N)c2ccccc2)ccc1Oc1ccc([N+](=O)[O-])cn1 | inconclusive: 0.631 µM [inhibitor, full curve, poor fit] |  |
| Cc1nn(CC(=O)Nc2cccc(C(F)(F)F)c2)c(=O)c2cccn12 | inconclusive: 3.98 µM [inhibitor, partial curve, poor fit] |  |
| Cc1cc2cc(CN(Cc3ccco3)C(=S)NCC3CCCO3)c(=O)[nH]c2cc1C (stereo not drawn) | inconclusive: 39.8 µM [inhibitor, single point] |  |
| Cc1c(C)c2ccc(OCC(=O)NCCCn3ccnc3)cc2oc1=O | inactive |  |
| Cc1ccc(-n2c(=O)c3sccc3n(CC(=O)N3CCCC3)c2=O)cc1 | inconclusive: 25.1 µM [inhibitor, partial curve, poor fit] |  |
| CC(C)c1ccc(NC(=O)c2ccc(Br)o2)cc1 | inactive |  |
| COc1ccc(-c2noc(-c3ccc(NC(C)c4ccccc4)c([N+](=O)[O-])c3)n2)cc1OC (stereo not drawn) | inconclusive: 8.91 µM [inhibitor, partial curve, poor fit] |  |
| Cc1ccc(S(=O)(=O)NCCC(=O)Nc2ccc(C)cc2C(=O)c2ccccc2)cc1 | inactive |  |
| COc1ccc(CNC(=O)CN(C)Cc2ccc(C(C)(C)C)cc2)cc1 | active: 39.8 µM |  |
| COc1ccc(C(=O)NC(=S)NNC(=O)c2c(-c3ccccc3)noc2C)cc1 | active: 5.62 µM |  |
| Cc1onc(-c2ccccc2Cl)c1C(=O)NCCn1c(C)cc2ccccc21 | active: 50.1 µM |  |
| CCOC(=O)N1CCN(C(=O)C2CCN(S(=O)(=O)c3ccccc3)CC2)CC1 | inconclusive: 56.2 µM [inhibitor, partial curve, poor fit] |  |
| CCOC(=O)c1c(C)n(-c2ccc(F)cc2)c2ccc(O)cc12 |  | inactive: -10.9% [at 2.33 µM] |
| COc1ccc(CCNCC(O)COc2ccc(OC)cc2C(C)(C)C)cc1 (stereo not drawn) | active: 44.7 µM |  |
| O=C(NNC(=O)c1ccccc1[N+](=O)[O-])c1ccccc1[N+](=O)[O-] | active: 10 µM |  |
| CCOC(=O)N1CCN(C(=O)CSc2nnc3[nH]c(=O)c(C)c(C)n23)CC1 | active: 14.1 µM |  |
| Cc1n[nH]c(=S)n1/N=C/c1ccc(OCc2ccc(Cl)cc2Cl)cc1 | active: 11.2 µM |  |
| N#Cc1ccccc1OCC(=O)OCC(=O)NC1CCS(=O)(=O)C1 (stereo not drawn) |  | inactive: 22.4% [at 12.7 µM] |
| O=c1cc(-c2ccccc2)[nH]c2nc3ccccc3n12 | inconclusive: 50.1 µM [inhibitor, partial curve, poor fit] |  |
